# Measured values reported in the supplement of paper PMC10037445.
# Whole data set: some 2,900 compounds, median “NF-kB SEAP reporter activity, fold change vs agonist alone” near 0.99, cut for the highest 2% near 2.6. The list shows a part of the results.
# How the values were obtained:
# [1] = tested on: RAW-Dual; assay: NF-kB SEAP reporter activity, fold change vs agonist alone; higher = enhanced NF-kB activity
# Summary of the method: (§1)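 After 50 nL of library stock was delivered by pin tool to RAW-Dual macrophages (50,000 cells/well, DMEM, 384-well plates), a PRR agonist was added 1 h later and the plates were kept at 37 °C, 5% CO2. Twenty hours later, IRF was read from supernatant by QuantiLuc luminescence and NF-κB by QuantiBlue absorbance at 620 nm. Reporter activity is stated as fold change over agonist-alone wells. Wells with IncuCyte confluency under 70% of agonist controls in both mask sets were counted as cytotoxic.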
# [2] = tested on: RAW-Dual; assay: NF-kB SEAP reporter activity, fold change vs agonist alone; cytotoxicity flag (confluency mask): not cytotoxic; higher = enhanced NF-kB activity
# Summary of the method: as §1
# [3] = tested on: RAW-Dual; assay: NF-kB SEAP reporter activity, fold change vs agonist alone; cytotoxicity flag (confluency mask): cytotoxic (confluency <70% of control); higher = enhanced NF-kB activity
# Summary of the method: as §1
# [4] = library stock concentration (final ~1000-fold dilution): 10 mM, cytotoxicity flag (confluency mask): not cytotoxic, agonist: Imiquimod (TLR7) […]
# [5] = library stock concentration (final ~1000-fold dilution): 10 mM, cytotoxicity flag (confluency mask): not cytotoxic, agonist: MPLA (TLR4) […]
# [6] = agonist: ODN 1826 (TLR9) 0.5 ug/mL
# [7] = agonist: Pam2CSK4 (TLR2/6) 0.1 ug/mL
# [8] = agonist: Pam3CSK4 (TLR2/1) 0.1 ug/mL
# [9] = library stock concentration (final ~1000-fold dilution): 10 mM, cytotoxicity flag (confluency mask): cytotoxic (confluency <70% of control), agonist: Imiquimod (TLR7) […]
# [10] = library stock concentration (final ~1000-fold dilution): 10 mM, cytotoxicity flag (confluency mask): cytotoxic (confluency <70% of control), agonist: MPLA (TLR4) […]
structure (smiles),measurement,setting,value
Cc1ccccc1N=Nc1ccc(NC(=O)c2ccnn2C)c(C)c1,NF-kB SEAP reporter activity,[1]; [4],0.467
same,NF-kB SEAP reporter activity,[1]; [5],1.1
CC[N+](CC)(CC)CCOc1cccc(OCC[N+](CC)(CC)CC)c1OCC[N+](CC)(CC)CC,NF-kB SEAP reporter activity,[1]; [4],0.986
same,NF-kB SEAP reporter activity,[1]; [5],1.06
CC[N+](CC)(CC)CCOc1cccc(OCC[N+](CC)(CC)CC)c1OCC[N+](CC)(CC)CC (library stock concentration (final ~1000-fold dilution): 10 mM),NF-kB SEAP reporter activity,[2]; agonist: LPS (TLR4) 0.1 ug/mL,1.38
same,NF-kB SEAP reporter activity,[2]; [6],1.11
same,NF-kB SEAP reporter activity,[2]; [7],1.16
same,NF-kB SEAP reporter activity,[2]; [8],1.27
CN1CCN(Cc2ccc(NC(=O)Nc3ccc(Oc4ccnc(N)n4)cc3)cc2C(F)(F)F)CC1,NF-kB SEAP reporter activity,[1]; [9],0.146
same,NF-kB SEAP reporter activity,[1]; [10],0.248
CN1CCN(Cc2ccc(NC(=O)Nc3ccc(Oc4ccnc(N)n4)cc3)cc2C(F)(F)F)CC1 (library stock concentration (final ~1000-fold dilution): 10 mM),NF-kB SEAP reporter activity,[3]; agonist: LPS (TLR4) 0.1 ug/mL,0.293
same,NF-kB SEAP reporter activity,[3]; [6],0.197
same,NF-kB SEAP reporter activity,[3]; [7],0.0678
same,NF-kB SEAP reporter activity,[3]; [8],0.129
CC(C(=O)O)c1ccc(C(=O)c2cccs2)cc1 (centres undefined) (library stock concentration (final ~1000-fold dilution): 10 mM),NF-kB SEAP reporter activity,[2]; agonist: LPS (TLR4) 0.1 ug/mL,1.19
same,NF-kB SEAP reporter activity,[2]; [6],0.999
same,NF-kB SEAP reporter activity,[2]; [7],1.06
same,NF-kB SEAP reporter activity,[2]; [8],1.07
CC(C(=O)O)c1ccc(C(=O)c2cccs2)cc1 (centres undefined),NF-kB SEAP reporter activity,[1]; [4],0.601
same,NF-kB SEAP reporter activity,[1]; [5],0.825
CN1CCN(c2nc(C3=C(c4c[nH]c5ccccc45)C(=O)NC3=O)c3ccccc3n2)CC1 (library stock concentration (final ~1000-fold dilution): 10 mM),NF-kB SEAP reporter activity,[3]; agonist: LPS (TLR4) 0.1 ug/mL,2.03
same,NF-kB SEAP reporter activity,[3]; [6],1.29
same,NF-kB SEAP reporter activity,[3]; [7],1.84
same,NF-kB SEAP reporter activity,[3]; [8],3.14
CN1CCN(c2nc(C3=C(c4c[nH]c5ccccc45)C(=O)NC3=O)c3ccccc3n2)CC1,NF-kB SEAP reporter activity,[1]; [9],2.99
same,NF-kB SEAP reporter activity,[1]; [10],2.19
COc1cc2ncnc(Nc3ccc(F)c(Cl)c3)c2cc1OCCCN1CCOCC1,NF-kB SEAP reporter activity,[1]; [9],2.14
same,NF-kB SEAP reporter activity,[1]; [10],1.5
COc1cc2ncnc(Nc3ccc(F)c(Cl)c3)c2cc1OCCCN1CCOCC1 (library stock concentration (final ~1000-fold dilution): 10 mM),NF-kB SEAP reporter activity,[3]; agonist: LPS (TLR4) 0.1 ug/mL,1.67
same,NF-kB SEAP reporter activity,[3]; [6],2.23
same,NF-kB SEAP reporter activity,[3]; [7],1.51
same,NF-kB SEAP reporter activity,[3]; [8],1.85
C(#Cc1nc2ncccc2nc1OCCN1CCCC1)c1ccccc1 (library stock concentration (final ~1000-fold dilution): 10 mM),NF-kB SEAP reporter activity,[3]; agonist: LPS (TLR4) 0.1 ug/mL,0.216
same,NF-kB SEAP reporter activity,[3]; [6],0.181
same,NF-kB SEAP reporter activity,[3]; [7],0.0729
same,NF-kB SEAP reporter activity,[3]; [8],0.135
C(#Cc1nc2ncccc2nc1OCCN1CCCC1)c1ccccc1,NF-kB SEAP reporter activity,[1]; [9],0.217
same,NF-kB SEAP reporter activity,[1]; [10],0.232
N=C(N)NCCCC(N)C(=O)NC(CCCNC(=N)N)C(=O)NC(CCCNC(=N)N)C(=O)NC(CCCNC(=N)N)C(=O)NC(CCCNC(=N)N)C(=O)NC(CCCNC(=N)N)C(=O)NC(CCCNC(=N)N)C(=O)NC(CCCNC(=N)N)C(=O)NC(CCCNC(=N)N)C(=O)NC(CS)C(=O)NC(CCC(N)=O)C(=O)NC(CS)C(=O)NC(CCCNC(=N)N)C(=O)NC(CCCNC(=N)N)C(=O)NC(CCCCN)C(=O)NC(CC(N)=O)C(=O)O (centres undefined),NF-kB SEAP reporter activity,"[1]; library stock concentration (final ~1000-fold dilution): 10 mM water, cytotoxicity flag (confluency mask): not cytotoxic, agonist: Imiquimod (TLR7) […]",0.51
same,NF-kB SEAP reporter activity,"[1]; library stock concentration (final ~1000-fold dilution): 10 mM water, cytotoxicity flag (confluency mask): not cytotoxic, agonist: MPLA (TLR4) […]",0.651
N=C(N)NCCCC(N)C(=O)NC(CCCNC(=N)N)C(=O)NC(CCCNC(=N)N)C(=O)NC(CCCNC(=N)N)C(=O)NC(CCCNC(=N)N)C(=O)NC(CCCNC(=N)N)C(=O)NC(CCCNC(=N)N)C(=O)NC(CCCNC(=N)N)C(=O)NC(CCCNC(=N)N)C(=O)NC(CS)C(=O)NC(CCC(N)=O)C(=O)NC(CS)C(=O)NC(CCCNC(=N)N)C(=O)NC(CCCNC(=N)N)C(=O)NC(CCCCN)C(=O)NC(CC(N)=O)C(=O)O (centres undefined) (library stock concentration (final ~1000-fold dilution): 10 mM water),NF-kB SEAP reporter activity,[2]; agonist: LPS (TLR4) 0.1 ug/mL,1.4
same,NF-kB SEAP reporter activity,[2]; [6],1.36
same,NF-kB SEAP reporter activity,[2]; [7],1.05
same,NF-kB SEAP reporter activity,[2]; [8],1.16
